The values that follow come from the supplement of paper PMC11741623.

The list shows a part of the results. Interaction screen of human proteins with wild-type SARS-CoV-2 proteins by split-DHFR complementation in yeast, 1 µg/mL methotrexate. Value = fitness of the pair (three or more lineages) minus that of the viral protein without a human partner, on a scale set by negative (0) and fused positive (1) controls, mean of up to three cultures; higher = more likely to interact. Active = false discovery rate below 0.05 (one-sided t-test) in at least one culture. Nearly all pairs are not hits, and differences among them are mostly noise (correlation between cultures about 0.3); most hits were seen in one culture only. Human sequences are the Swiss-Prot entries looked up by gene name; the clone may be another isoform. NSP2 values were corrected by the authors for a growth advantage. Listed are human proteins with a hit and a random twelfth of the others.

B1: TXNDC8, Q6A555 (protein)
chain: MVQIIKDTNEFKTFLTAAGHKLAVVQFSSKRCGPCKRMFPVFHAMSVKYQNVFFANVDVNNSPELAETCHIKTIPTFQMFKKSQKVTLFSRIKRIICCYRSGFMSNLIFEFCGADAKKLEAKTQELM
B2: ALKBH2, Q6NS38 (protein)
chain: MDRFLVKGAQGGLLRKQEEQEPTGEEPAVLGGDKESTRKRPRREAPGNGGHSAGPSWRHIRAEGLDCSYTVLFGKAEADEIFQELEKEVEYFTGALARVQVFGKWHSVPRKQATYGDAGLTYTFSGLTLSPKPWIPVLERIRDHVSGVTGQTFNFVLINRYKDGCDHIGEHRDDERELAPGSPIASVSFGACRDFVFRHKDSRGKSPSRRVAVVRLPLAHGSLLMMNHPTNTHWYHSLPVRKKVLAPRVNLTFRKILLTKK
B3: SPRTN, Q9H040 (protein)
chain: MDDDLMLALRLQEEWNLQEAERDHAQESLSLVDASWELVDPTPDLQALFVQFNDQFFWGQLEAVEVKWSVRMTLCAGICSYEGKGGMCSIRLSEPLLKLRPRKDLVETLLHEMIHAYLFVTNNDKDREGHGPEFCKHMHRINSLTGANITVYHTFHDEVDEYRRHWWRCNGPCQHRPPYYGYVKRATNREPSAHDYWWAEHQKTCGGTYIKIKEPENYSKKGKGKAKLGKEPVLAAENKDKPNRGEAQLVIPFSGKGYVLGETSNLPSPGKLITSHAINKTQDLLNQNHSANAVRPNSKIKVKFEQNGSSKNSHLVSPAVSNSHQNVLSNYFPRVSFANQKAFRGVNGSPRISVTVGNIPKNSVSSSSQRRVSSSKISLRNSSKVTESASVMPSQDVSGSEDTFPNKRPRLEDKTVFDNFFIKKEQIKSSGNDPKYSTTTAQNSSSSSSQSKMVNCPVCQNEVLESQINEHLDWCLEGDSIKVKSEESL
B4: C12orf36, Q495D7 (protein)
chain: MERFLNSKARRLGSCSHPAFYLLCVPDEDTSCSTIYLPLKRRADPDQLFSDLLGGTQRLWSNRFGNEESFPGRVRALVDTFCWIARAPPLGNPLRLEERIAWRIQRLKSGQTALIEKKKQKIEEDVRHQCQQTTCDRC
B5: HDC, P19113 (protein)
chain: MMEPEEYRERGREMVDYICQYLSTVRERRVTPDVQPGYLRAQLPESAPEDPDSWDSIFGDIERIIMPGVVHWQSPHMHAYYPALTSWPSLLGDMLADAINCLGFTWASSPACTELEMNVMDWLAKMLGLPEHFLHHHPSSQGGGVLQSTVSESTLIALLAARKNKILEMKTSEPDADESCLNARLVAYASDQAHSSVEKAGLISLVKMKFLPVDDNFSLRGEALQKAIEEDKQRGLVPVFVCATLGTTGVCAFDCLSELGPICAREGLWLHIDAAYAGTAFLCPEFRGFLKGIEYADSFTFNPSKWMMVHFDCTGFWVKDKYKLQQTFSVNPIYLRHANSGVATDFMHWQIPLSRRFRSVKLWFVIRSFGVKNLQAHVRHGTEMAKYFESLVRNDPSFEIPAKRHLGLVVFRLKGPNCLTENVLKEIAKAGRLFLIPATIQDKLIIRFTVTSQFTTRDDILRDWNLIRDAATLILSQHCTSQPSPRVGNLISQIRGARAWACGTSLQSVSGAGDDPVQARKIIKQPQRVGAGPMKRENGLHLETLLDPVDDCFSEEAPDATKHKLSSFLFSYLSVQTKKKTVRSLSCNSVPVSAQKPLPTEASVKNGGSSRVRIFSRFPEDMMMLKKSAFKKLIKFYSVPSFPECSSQCGLQLPCCPLQAMV
B6: MYOZ2, Q9NPC6 (protein)
chain: MLSHNTMMKQRKQQATAIMKEVHGNDVDGMDLGKKVSIPRDIMLEELSHLSNRGARLFKMRQRRSDKYTFENFQYQSRAQINHSIAMQNGKVDGSNLEGGSQQAPLTPPNTPDPRSPPNPDNIAPGYSGPLKEIPPEKFNTTAVPKYYQSPWEQAISNDPELLEALYPKLFKPEGKAELPDYRSFNRVATPFGGFEKASRMVKFKVPDFELLLLTDPRFMSFVNPLSGRRSFNRTPKGWISENIPIVITTEPTDDTTVPESEDL
B7: TMEM108, Q6UXF1 (protein)
chain: MKRSLQALYCQLLSFLLILALTEALAFAIQEPSPRESLQVLPSGTPPGTMVTAPHSSTRHTSVVMLTPNPDGPPSQAAAPMATPTPRAEGHPPTHTISTIAATVTAPHSESSLSTGPAPAAMATTSSKPEGRPRGQAAPTILLTKPPGATSRPTTAPPRTTTRRPPRPPGSSRKGAGNSSRPVPPAPGGHSRSKEGQRGRNPSSTPLGQKRPLGKIFQIYKGNFTGSVEPEPSTLTPRTPLWGYSSSPQPQTVAATTVPSNTSWAPTTTSLGPAKDKPGLRRAAQGGGSTFTSQGGTPDATAASGAPVSPQAAPVPSQRPHHGDPQDGPSHSDSWLTVTPGTSRPLSTSSGVFTAATGPTPAAFDTSVSAPSQGIPQGASTTPQAPTHPSRVSESTISGAKEETVATLTMTDRVPSPLSTVVSTATGNFLNRLVPAGTWKPGTAGNISHVAEGDKPQHRATICLSKMDIAWVILAISVPISSCSVLLTVCCMKRKKKTANPENNLSYWNNTITMDYFNRHAVELPREIQSLETSEDQLSEPRSPANGDYRDTGMVLVNPFCQETLFVGNDQVSEI

The target in the first experiment is SARS-CoV-2 NSP10. The experiment is described as follows: yeast fitness gain over the viral ORF with no human partner (scaled fitness); higher = more likely to interact. Here is the method: (§1)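 Split mouse DHFR complementation in pooled diploid yeast: human ORFeome clones carry one fragment and viral ORFs the other; barcoded lineages compete in 1 µg/mL methotrexate and fitness is read by barcode sequencing in up to three cultures.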
B1: the yeast fitness gain was inactive: -0.0254.
As for B6, the yeast fitness gain was inactive: 0.056.

Another experiment deals with SARS-CoV-2 NSP12. The experiment is described as above. On the procedure:
as §1
In the case of B1, the yeast fitness gain is inactive: 0.108.
On the same count and under the same terms, the result for B2 reads inactive: -0.121; that for B3, inactive: 0.0956; that for B4, inactive: 0.0718.
On the same count and under the same terms, the result for B5 reads inactive: -0.18; that for B7, inactive: 0.0853.

The target in another experiment is SARS-CoV-2 NSP13. The description is as above. On the procedure: as §1
As for B1, the yeast fitness gain is inactive: -0.0978.
Take B2: the yeast fitness gain is inactive: 0.0266.
The same measure, in the same setting: next, B3: inactive: -0.173; B4: inactive: -0.124.
The same measure, in the same setting: the result for B5 reads inactive: -0.0179; that for B6, inactive: -0.0848.

In a further experiment the target is SARS-CoV-2 NSP2. Described as above. Here is the method: as §1
For B1, the yeast fitness gain is inactive: -0.153.
With B2, the yeast fitness gain is inactive: -0.207.
On the same count and under the same terms, the result for B3 reads inactive: -0.0463; that for B4, inactive: -0.295.
B5: the yeast fitness gain was inactive: -0.187.

For a further experiment, the target named is SARS-CoV-2 ORF10. Described as above. Here is the method:
as §1
Turning to B1, the yeast fitness gain was inactive: 0.017.
Regarding B2, the yeast fitness gain was inactive: 0.0796.
On the same count and under the same terms, next, B6: inactive: 0.0983.

The next experiment concerns the target SARS-CoV-2 ORF3B. Described as above. On the procedure: as §1
Take B1: the yeast fitness gain is inactive: -0.00748.
Same read-out and setting: next, B3: inactive: 0.181; B5: inactive: -0.216.

For the next experiment, the target named is SARS-CoV-2 ORF6. The description is as above. On the procedure:
as §1
Turning to B1, the yeast fitness gain is inactive: -0.0323.
The same measure, in the same setting: next, B2: inactive: -0.102; B3: inactive: 0.033; B5: inactive: -0.204.
Still for that read-out and setting: next, B7: inactive: -0.0262.

A further experiment deals with SARS-CoV-2 ORF8. Described as above. Here is the method: as §1
For the molecule B1, the yeast fitness gain was inactive: -0.162.
The same measure, in the same setting: next, B2: inactive: 0.0172; B6: inactive: -0.0201.

The target of the next experiment is SARS-CoV-2 ORF9B. Described as above. Here is the method:
as §1
For B1, the yeast fitness gain was inactive: -0.00137.
On the same count and under the same terms, next, B2: inactive: -0.113.
On the same count and under the same terms, the result for B3 reads inactive: 0.0919; that for B5, inactive: -0.0184.

The next experiment has as its target SARS-CoV-2 ORF9Bwu (the 73-codon ORF). The description is as above. On the procedure:
as §1
Take B1: the yeast fitness gain was inactive: 0.00282.
The same measure, in the same setting: the result for B4 reads inactive: -0.0218.

The target of another experiment is SARS-CoV-2 S. The experiment is described as above. On the procedure:
as §1
Consider B1, for which the yeast fitness gain was inactive: 0.0871.
With B2, the yeast fitness gain is inactive: -0.45.

A further experiment deals with SARS-CoV-2 NSP5. The experiment is described as above. Here is the method:
as §1
On to B2, for which the yeast fitness gain was inactive: 0.0141.
Consider B5, for which the yeast fitness gain is inactive: -0.0322.

The next experiment concerns the target SARS-CoV-2 NSP7. Described as above. On the procedure:
as §1
With B2, the yeast fitness gain was inactive: -0.0291.

The target in the next experiment is SARS-CoV-2 NSP8. The experiment is described as above. Here is the method: as §1
For B2, the yeast fitness gain is inactive: 0.0235.

In another experiment the target is SARS-CoV-2 ORF7A. The experiment is described as above. On the procedure: as §1
In the case of B2, the yeast fitness gain was inactive: -0.00767.
In the case of B5, the yeast fitness gain was inactive: -0.113.

For another experiment, the target named is SARS-CoV-2 ORF7B. The description is as above. Here is the method: as §1
As for B2, the yeast fitness gain is inactive: -0.01.
On the same count and under the same terms, next, B3: inactive: 0.0268; B5: inactive: 0.00716.

A further experiment concerns the target SARS-CoV-2 NSP15. Described as above. On the procedure:
as §1
For B6, the yeast fitness gain is inactive: 0.0494.
